Measurements from the BET-seq Pho4 binding data (Le et al. 2018).
The other results are listed elsewhere or left out. The energies were worked out here from pooled read counts, against the library average; single values are noisy.

Target: T1, Pho4 (S. cerevisiae) (UniProt P07270)
T1 sequence: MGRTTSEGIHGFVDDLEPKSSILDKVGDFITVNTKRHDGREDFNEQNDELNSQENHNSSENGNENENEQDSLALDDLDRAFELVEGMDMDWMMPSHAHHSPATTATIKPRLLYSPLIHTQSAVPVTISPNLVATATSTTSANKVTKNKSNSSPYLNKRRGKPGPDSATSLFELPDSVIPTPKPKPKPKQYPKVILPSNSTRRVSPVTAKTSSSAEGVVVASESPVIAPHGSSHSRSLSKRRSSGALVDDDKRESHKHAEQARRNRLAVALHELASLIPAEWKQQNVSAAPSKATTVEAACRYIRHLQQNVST
Assay: relative binding free energy (BET-seq); higher = weaker binding
Conditions: reference: library average

Row | Sequence | relative binding free energy
1 | TTGAGCACGTGGTGCA | -0.2 kcal/mol
2 | GTTTGCACGTGGTTAA | -0.01 kcal/mol
3 | TGTAACACGTGATAGT | 0.18 kcal/mol
4 | TGGTTCACGTGCTCTT | 0.22 kcal/mol
5 | AGGGACACGTGTTCGT | 0.1 kcal/mol
6 | CTTTTCACGTGGCGTA | 0.08 kcal/mol
7 | TAGGACACGTGGAGCT | 0.07 kcal/mol
8 | GGGGGCACGTGGGCGG | -0.15 kcal/mol
9 | GATGGCACGTGTAGTC | 0.04 kcal/mol
10 | GGGTACACGTGCAGTT | 0.16 kcal/mol
11 | GGTTGCACGTGTCGAG | 0.16 kcal/mol
12 | GGAATCACGTGGTGGA | 0.14 kcal/mol
13 | TGCAACACGTGGTTTG | -0.08 kcal/mol
14 | CGGGTCACGTGCATAT | 0.24 kcal/mol
15 | TTTGGCACGTGGCAAG | -0.16 kcal/mol
16 | TTGGGCACGTGCGCTG | -0.09 kcal/mol
17 | TGGGACACGTGGGATA | -0.03 kcal/mol
18 | ACTGTCACGTGCGGTT | 0.06 kcal/mol
19 | GGCTGCACGTGTAAGG | 0.15 kcal/mol
20 | TGTCGCACGTGCTGAG | -0.11 kcal/mol
21 | GTAGTCACGTGGGCGC | 0.1 kcal/mol

Row | Sequence | relative binding free energy
22 | CGGTGCACGTGGCTGA | -0.1 kcal/mol
23 | AGATTCACGTGTGCTG | 0.12 kcal/mol
24 | GTTTCCACGTGTGTAA | 0.23 kcal/mol
25 | GGGTCCACGTGTCGGG | 0.05 kcal/mol
26 | GTAGTCACGTGAGCGC | 0.31 kcal/mol
27 | GGGCCCACGTGTTGTT | -0.05 kcal/mol
28 | TGTTGCACGTGCGAGT | 0.12 kcal/mol
29 | GTGGGCACGTGGGTAT | -0.15 kcal/mol
30 | TCTGGCACGTGAGGTG | 0.15 kcal/mol
31 | ATAAGCACGTGATGTT | 0.11 kcal/mol
32 | CAGTTCACGTGGTCGT | 0.21 kcal/mol
33 | GGTTTCACGTGTCGGC | 0.41 kcal/mol
34 | TGGGGCACGTGAATCT | 0.04 kcal/mol
35 | TAATACACGTGTGGGG | -0.03 kcal/mol
36 | AATGGCACGTGAGTAG | 0 kcal/mol
37 | AGTTTCACGTGTCTGA | 0.22 kcal/mol
38 | CGTATCACGTGCGTGG | -0.04 kcal/mol
39 | ATTAACACGTGTGGTA | -0.13 kcal/mol
40 | TGCATCACGTGTCGGA | 0.29 kcal/mol
41 | ATATGCACGTGTTTCA | -0.02 kcal/mol
42 | AAGTACACGTGAGTTG | 0.23 kcal/mol

Row | Sequence | relative binding free energy
43 | GTTAACACGTGTCGTG | 0.11 kcal/mol
44 | GGGAGCACGTGGTAGC | -0.09 kcal/mol
45 | AGACTCACGTGAGGTG | 0.21 kcal/mol
46 | GTAACCACGTGGTTGT | -0.07 kcal/mol
47 | ATTGTCACGTGGCTTT | 0 kcal/mol
48 | TTGTCCACGTGGGTGA | -0.11 kcal/mol
49 | GTGAGCACGTGATATG | 0.07 kcal/mol
50 | TTACTCACGTGATTTG | 0.17 kcal/mol
51 | AGGGCCACGTGTTGGA | -0.07 kcal/mol
52 | GATGTCACGTGTACGG | 0.2 kcal/mol
53 | GAGAGCACGTGGTTTT | 0 kcal/mol
54 | ATCATCACGTGGTTGG | 0 kcal/mol
55 | TGCGGCACGTGGGCGT | -0.15 kcal/mol
56 | ATCGTCACGTGGGAGG | -0.08 kcal/mol
57 | AGTGGCACGTGTCTTG | -0.24 kcal/mol
58 | TGTTACACGTGAATGC | 0.32 kcal/mol
59 | GTTGCCACGTGTGAAG | 0.07 kcal/mol
60 | TTGGCCACGTGAGGTT | 0.14 kcal/mol
61 | GGGGTCACGTGAATGG | 0.38 kcal/mol
62 | TATTTCACGTGCTTAT | 0.19 kcal/mol
63 | GAATGCACGTGTTTTG | 0.06 kcal/mol
